Here are results for 32 sequences from the supplement of paper PMC12645437, “Orthogonal IMiD-Degron Pairs Induce Selective Protein Degradation in Cells” (ACS Chemical Biology, 2025).

The list shows a part of the results.

To fix the notation:
B1: Q9UKT9 (peptide)
chain: FNCPICGRGFTQKGNLLRHIKL
B2: Q9UKT9 (peptide)
chain: FQCNQCGRSFTQKGNLLRHIKL
B3: Q9UKT9 (peptide)
chain: FACSVCGHRFTQKGNLLRHIKL
B4: Q9UKT9 (peptide)
chain: FKCDICGAYFTQKGNLLRHIKL
B5: Q9UKT9 (peptide)
chain: FHCPICGAGFTQKGNLLRHIKL
B6: Q9UKT9 (peptide)
chain: FQCPICGAMFTQKGNLLRHIKL
B7: Q9UKT9 (peptide)
chain: FRCNICGARFTQKGNLLRHIKL
B8: Q9UKT9 (peptide)
chain: LGCPICGFYCTQKGNLLRHIKL
B9: Q9UKT9 (peptide)
chain: FWCNQCGRRFTQKGNLLRHIKL
B10: Q9UKT9 (peptide)
chain: FKCEQCGAPFTQKGNLLRHIKL
B11: Q9UKT9 (peptide)
chain: FACNVCGAKFTQKGNLLRHIKL
B12: Q9UKT9 (peptide)
chain: FHCEICGRLFTQKGNLLRHIKL
B13: Q9UKT9 (peptide)
chain: FMCNQCGAPFTQKGNLLRHIKL
B14: Q9UKT9 (peptide)
chain: FSCEICGHAFTQKGNLLRHIKL
B15: Q9UKT9 (peptide)
chain: FNCEVCGAYFTQKGNLLRHIKL
B16: Q9UKT9 (peptide)
chain: FCCEICGAVFTQKGNLLRHIKL
B17: Q9UKT9 (peptide)
chain: FGCNQCGHGFTQKGNLLRHIKL
B18: Q9UKT9 (peptide)
chain: FTCNICGARFTQKGNLLRHIKL
B19: Q9UKT9 (peptide)
chain: FECEVCGAEFTQKGNLLRHIKL
B20: Q9UKT9 (peptide)
chain: FMCSVCGHRFTQKGNLLRHIKL
B21: Q9UKT9 (peptide)
chain: FRCEICGHHFTQKGNLLRHIKL
B22: Q9UKT9 (peptide)
chain: FMCDICGALFTQKGNLLRHIKL
B23: Q9UKT9 (peptide)
chain: FFCPICGAEFTQKGNLLRHIKL
B24: Q9UKT9 (peptide)
chain: FQCDICGAYFTQKGNLLRHIKL
B25: Q9UKT9 (peptide)
chain: FKCDICGAMFTQKGNLLRHIKL
B26: Q9UKT9 (peptide)
chain: FICEICGHFFTQKGNLLRHIKL
B27: Q9UKT9 (peptide)
chain: FACEICGHGFTQKGNLLRHIKL
B28: Q9UKT9 (peptide)
chain: FRCEQCGAQFTQKGNLLRHIKL
B29: Q9UKT9 (peptide)
chain: FKCEQCGAHFTQKGNLLRHIKL
B30: Q9UKT9 (peptide)
chain: FGCEICGRMFTQKGNLLRHIKL
B31: Q9UKT9 (peptide)
chain: FMCNVCGAYFTQKGNLLRHIKL
B32: Q9UKT9 (peptide)
chain: FCCDQCGAGFTQKGNLLRHIKL
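Further: jurkat cells carrying a lentiviral library of mutant zinc finger degrons fused to EGFP plus mCherry, mCherry+ cells FACS sorted, degron abundance counted by next-generation sequencing.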

The target in the assay is no compound (DMSO). The experiment in a line: log2 fold change of degron read counts, EGFP-low vs EGFP+ sorted cells; higher = lower degron-EGFP level without compound (poor expression or instability). The conditions noted are these: compound: DMSO control; 18 h.
Consider B1, for which the “log2 fold change of degron read counts” value was -0.272.
B2: the “log2 fold change of degron read counts” value was -0.415.
The result for B3 reads -0.218.
For B4, the “log2 fold change of degron read counts” value is -1.05.
With B5, the “log2 fold change of degron read counts” value was -0.492.
The result for B6 reads 0.00923.
The result for B7 reads -0.727; that for B8, 1.58; that for B9, 0.888.
The result for B10 reads -1.55; that for B11, -1.09; that for B12, -0.246.
For B13, the “log2 fold change of degron read counts” value was -0.376.
The result for B14 reads -0.548; that for B15, -0.406.
The result for B16 reads -1.19.
Turning to B17, the “log2 fold change of degron read counts” value came to 1.32.
As to B18, the “log2 fold change of degron read counts” value is -0.339.
The result for B19 reads -3.08; that for B20, -0.354.
Turning to B21, the “log2 fold change of degron read counts” value is -0.896.
The result for B22 reads -0.879; that for B23, -0.127; that for B24, -0.918.
On to B25, for which the “log2 fold change of degron read counts” value is -1.43.
As to B26, the “log2 fold change of degron read counts” value is -0.776.
The result for B27 reads -1.18.
Consider B28, for which the “log2 fold change of degron read counts” value was -1.63.
The result for B29 reads -1.28; that for B30, -0.636; that for B31, 0.0957.
The result for B32 reads -0.619.
